According to the supplement of paper PMC3334620:
Whole data set: some 33,000 sequences, median “E-score (-0.5 to 0.5)” near -0.032, cut for the highest 2% near 0.36. The list shows a part of the results.

Target: T1, Sko1 (UniProt Q02100)
T1 sequence: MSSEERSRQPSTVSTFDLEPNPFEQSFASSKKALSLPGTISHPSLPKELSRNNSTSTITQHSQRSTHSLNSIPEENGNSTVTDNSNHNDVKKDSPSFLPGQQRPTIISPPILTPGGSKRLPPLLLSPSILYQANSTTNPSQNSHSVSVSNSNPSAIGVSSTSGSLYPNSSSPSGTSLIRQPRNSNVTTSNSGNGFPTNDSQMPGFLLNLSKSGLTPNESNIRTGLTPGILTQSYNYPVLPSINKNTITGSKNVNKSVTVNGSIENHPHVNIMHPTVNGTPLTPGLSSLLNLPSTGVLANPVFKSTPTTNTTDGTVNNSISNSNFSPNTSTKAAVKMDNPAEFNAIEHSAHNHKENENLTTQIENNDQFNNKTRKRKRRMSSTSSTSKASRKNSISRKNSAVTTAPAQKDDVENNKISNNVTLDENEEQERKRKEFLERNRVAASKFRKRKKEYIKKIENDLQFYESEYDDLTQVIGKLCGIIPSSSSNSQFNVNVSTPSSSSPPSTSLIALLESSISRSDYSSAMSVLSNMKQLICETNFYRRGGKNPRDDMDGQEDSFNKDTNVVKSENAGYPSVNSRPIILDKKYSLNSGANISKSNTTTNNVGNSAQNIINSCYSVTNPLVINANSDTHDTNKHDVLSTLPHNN
Experiment: PBM E-score (8-mer binding enrichment) (E-score (-0.5 to 0.5)); higher = stronger / more preferred TF binding; most listed sequences are background and not binding sites
Settings: protein concentration: 200 nM; construct: GST-full length
How it was run: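 GST-tagged yeast TFs (full-length or DNA-binding domain) were made by PURExpress in vitro transcription/translation and applied at about 100-200 nM to universal all-10-mer Agilent arrays. The arrays were made double-stranded by primer extension, on fresh or once-stripped slides. Bound protein was detected with fluorescent anti-GST, and scans were normalised with masliner. Each ungapped eight-base word, pooled with its reverse complement, received an E-score (modified Wilcoxon-Mann-Whitney statistic) from the Universal PBM Analysis Suite.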

Sequence	PBM E-score
CGAGGGAG	-0.369
ACTAGTTG	-0.195
GTACAGAC	0.086
AGTCTGCA	-0.232
AAGTCTGG	-0.0103
ATCATATG	0.247
CAGCAGCA	-0.172
GATAACGA	0.268
GACTCGCA	-0.153
ATGTAGAG	0.0634
ATCCATCG	-0.193
CACAATGA	0.167
CAAAATTG	0.0476
CCCTCTAG	-0.109
AGTCGGGA	-0.184
AACCCGGC	-0.161
GACTGCGC	-0.199
TAGGGGCA	-0.101
CTTTAAAC	-0.0658
CGGATGAA	0.0556
GCTCTTCA	-0.356
CATACTCA	0.0384

Sequence	PBM E-score
ATAAAACA	0.221
ACCTCGTA	0.13
CGCCACAC	0.0843
CCATAGCA	-0.107
AGAGAAGG	-0.386
ATTGAATC	-0.00848
ATTTCACG	0.0368
AGACTAAG	0.052
GAGCTTGA	-0.156
CGGAACCC	-0.252
ACCTGCTA	-0.0628
AGTTGAGG	-0.166
ACTTATCC	0.0171
AAGGTTTC	-0.132
GCCTGGAC	-0.194
ACCTACCA	-0.118
CGAGAGGC	-0.26
AGGTCGCG	-0.153
GCGTCTAA	-0.00774
AAATACTC	0.065
ATGGCGGG	-0.242
CGCTAGAA	-0.147

Sequence	PBM E-score
CGGCAGCA	-0.195
GCGCTTAA	-0.00633
CGACTTCC	0.00337
TCGTGGCA	0.0698
GCCTTTCA	-0.117
GGAGTCAC	-0.0997
GTCCGCAA	-0.112
ATGGCAGG	-0.281
AGACAAGG	-0.211
ACTATGAA	0.11
ATGGGCGA	-0.123
CGCAGCTC	-0.0758
CCTATTGC	-0.142
AAATACCT	0.0741
GCATGGGA	-0.192
AAATTCTC	-0.0401
CGACCTGA	-0.0964
GATCCCAA	-0.134
ACACTGGA	-0.0273
GCTGTATA	0.0331
AACGCCGT	-0.0754
AATCAGCG	0.14

Sequence	PBM E-score
GACATACA	0.277
ACTAACTG	0.0013
CATGAGGG	-0.0274
GCCAGAGA	-0.105
CATTTGTC	0.0524
GTAGAGGA	-0.194
ACCCTCGG	-0.289
CATACTGA	0.175
CCCTTGAG	-0.24
GCCACTGA	-0.031
ATAACTTC	0.0712
GAAGGTTA	0.0047
AAGGAGGA	-0.0677
GAGCCTGA	-0.16
GGAAAATA	0.074
CCATAACG	0.296
AACGTCTA	0.239
ACCGCGAT	0.106
AGGCGATC	0.105
AAGATCCC	-0.041
